Values joined by “and” are separate entries in the source; they are usually repeats but may differ in a detail not shown here. Equal values may be shown once. Hit rate of the full screen: of about 410,000 compounds, about 6,400 (1.6%) were called active. Inconclusive means that the source gave no clear call. Such entries were picked first, then a sample of the others. Calls come from the whole dose curve; as a rule, active = well fitted inhibition curve with a large enough effect; inconclusive = small, poorly fitted or top-dose-only effect; inactive = no such curve, though single readings can be large or run the other way. Where the call is inconclusive, the potency comes from a doubtful curve fit.
target: Glucagon-like peptide 1 receptor (Homo sapiens) (UniProt P43220); assay: qHTS of GLP-1 Receptor Inverse Agonists (Inhibition Mode); details: HEK293 GLP-1R CRE-luciferase, luminescence, 24 h, GLP-1R form is constitutively active; activity change, negative = inhibition: at 38.3 µM (top of the series) unless noted; note: nearly all actives have a fitted effect of over 55% in size
Sequence of UniProt P43220 (P43220 whole entry, looked up): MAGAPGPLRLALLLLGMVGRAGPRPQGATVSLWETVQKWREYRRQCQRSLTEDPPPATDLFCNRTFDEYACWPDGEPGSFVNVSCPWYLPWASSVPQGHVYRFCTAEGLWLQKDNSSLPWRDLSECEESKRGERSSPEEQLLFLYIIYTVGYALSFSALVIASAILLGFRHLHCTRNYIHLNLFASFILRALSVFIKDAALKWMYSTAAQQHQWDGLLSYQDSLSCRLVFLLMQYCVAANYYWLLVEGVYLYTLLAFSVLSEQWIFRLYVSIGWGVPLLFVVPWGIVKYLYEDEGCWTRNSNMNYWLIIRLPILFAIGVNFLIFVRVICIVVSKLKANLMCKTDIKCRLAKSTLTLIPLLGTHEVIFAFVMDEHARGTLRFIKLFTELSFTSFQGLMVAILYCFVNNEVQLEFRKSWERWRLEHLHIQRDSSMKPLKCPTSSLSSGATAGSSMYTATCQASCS
Procedure, shortened: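 Cells are plated, allowed 12 hours at 37 deg C, then treated with compounds for 24 hr before luciferase detection reagent is added and luminescence is read after 12 min at room temperature. The HEK293 line carries constitutively active GLP-1R with a cAMP-responsive reporter.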
% is set by controls: 0 for no effect and ±100 for the full control effect; potency is the fitted concentration of half-maximal effect; tags give direction and shape of the fitted curve.

| Compound | activity change, negative = inhibition | Potency |
| --- | --- | --- |
| CN(C)CCCn1c(NC(=O)C2CCCCC2)nc2ccccc21 | inactive: -19.9% |  |
| CCc1cccc(NC(=O)CCC(=O)N2CCSc3ccccc32)c1 |  | inconclusive: 12.6 µM [inhibitor, single point] and inconclusive: 10 µM [inhibitor, partial curve, poor fit] |
| Cc1ccc(Oc2c(C(F)(F)F)oc3c(CN4CCC(C)CC4)c(O)ccc3c2=O)cc1 | inactive: 13.1% |  |
| COC(=O)c1ccc(CSc2nc3ccccc3c(=O)n2-c2ccc(OC)c(OC)c2)o1 |  | inconclusive: 11.2 µM [inhibitor, partial curve, poor fit] |
| O=C(Nc1ccccc1-c1ccccc1)c1ccco1 |  | inconclusive: 8.91 µM [inhibitor, partial curve] |
| O=C(CCCCCBr)N1CCC(CC2CC(c3cccc(Br)c3)=NO2)(C(=O)NCC2CCCCC2)CC1 (stereo not drawn) |  | inconclusive: 12.6 µM [inhibitor, single point] |
| Cc1ccc(C)c(N2CCN(C(=O)C3CCN(c4nc5ccc(C)cc5[nH]4)CC3)CC2)c1 |  | inconclusive: 10 µM [inhibitor, partial curve, poor fit] |
| COc1cccc(NC(=O)c2ccc(NC(=O)C3CC(=O)OC34CCCCC4)cc2)c1 (stereo not drawn) |  | inconclusive: 10 µM [inhibitor, partial curve, poor fit] |
| CCCCCCSc1ccc([C@H]2N[C@@](C)(C(=O)OC)[C@H]3C(=O)N(CC)C(=O)[C@@H]23)cc1 |  | active: 10 µM |
| CCCCn1c(SCC(=O)Nc2cc(C(F)(F)F)cc(C(F)(F)F)c2)nnc1C(CC)N(C)C (stereo not drawn) |  | inconclusive: 6.31 µM [inhibitor, partial curve, poor fit] |
| O=C(CSc1c2c(nc3ccc(Cl)cc13)CCCC2)NCCCN1CCOCC1 | inactive: 7.78% |  |
| COc1cc(NC(=O)Cn2c(=O)n(Cc3ccco3)c(=O)c3sc4ccccc4c32)cc(OC)c1 | inactive: -9.27% |  |
| CCOc1ccc(Br)cc1S(=O)(=O)Nc1ccccc1N1CCOCC1 |  | inconclusive: 15.8 µM [inhibitor, single point] |
| COc1ccc(CCNC(=O)C(C)n2nc(C)c3c(C)n(-c4ccc(C)cc4)nc3c2=O)c(OC)c1 (stereo not drawn) |  | inconclusive: 5.62 µM [inhibitor, partial curve, poor fit] |
| Cc1ccccc1CCNC(=O)C1CCC(=O)N(Cc2ccc(Cl)cc2)C1 (stereo not drawn) |  | inconclusive: 5.62 µM [inhibitor, partial curve, poor fit] |
| CC1C/C(=N/N=C2/NC(=O)CS2)CC(C)(C)C1 (stereo not drawn) |  | inconclusive: 2.24 µM [inhibitor, full curve, poor fit] |
| C[C@@H]1CN([C@@H](C)CO)S(=O)(=O)c2ccc(C#CC3CCCCC3)cc2O[C@@H]1CN(C)Cc1cccnc1 |  | inconclusive: 28.2 µM [inhibitor, single point] |
| COCCCNc1oc(/C=C/c2cc(OC)c(OC)c(OC)c2)nc1C#N | inactive: 0.0087% |  |
| Cc1nc(NS(=O)(=O)c2ccc(Cl)s2)c2c3c(sc2n1)CCCC3 |  | inconclusive: 7.94 µM [inhibitor, partial curve, poor fit] |
| O=C(Nc1nccs1)c1cccnc1Cl | inactive: 8.02% |  |
| Cc1ccc(-c2noc(CN3CCN(c4ccccc4F)CC3)n2)cc1 |  | inconclusive: 28.2 µM [inhibitor, single point] |

| Compound | activity change, negative = inhibition | Potency |
| --- | --- | --- |
| O=C(Nc1cccc(Cl)c1)c1ccc(F)c(S(=O)(=O)NCc2cccs2)c1 |  | inconclusive: 1.58 µM [inhibitor, full curve, poor fit] |
| CCCCN(C)c1c(C)nc2ccc(C(=O)NC3CCN(C)CC3)cn12 |  | inconclusive: 28.2 µM [inhibitor, single point] |
| CSc1cccc(NC(=S)N(CCC(C)C)C(C)c2ccncc2)c1 (stereo not drawn) |  | inconclusive: 31.6 µM [inhibitor, single point] |
| COc1ccc(C2CC(c3cccs3)=NN2C(=O)CSc2nc3ccccc3o2)cc1 (stereo not drawn) |  | inconclusive: 10 µM [inhibitor, partial curve, poor fit] |
| Cc1ccccc1C(=O)Nc1ccc(N(C)C)c2ccccc12 |  | inconclusive: 10 µM [inhibitor, partial curve, poor fit] |
| O=C(CN1CCN(c2ccc(O)cc2)CC1)Nc1ccc2c(c1)OCCO2 |  | inconclusive: 2.24 µM [inhibitor, full curve] |
| CCC(C(=O)Nc1cc(OC)cc(OC)c1)n1nc(-c2ccc(C)c(C)c2)ccc1=O (stereo not drawn) |  | inconclusive: 28.2 µM [inhibitor, single point] |
| Cc1ccc(NC(=O)CN(C)S(=O)(=O)c2cccs2)cc1F |  | inconclusive: 28.2 µM [inhibitor, single point] |
| O=c1sc2ccccc2c(=O)n1Cc1ccccc1F |  | inconclusive: 22.4 µM [inhibitor, single point] |
| CCN(CC)C(=O)CN(c1cccc(Br)c1)S(C)(=O)=O |  | inconclusive: 1.41 µM [inhibitor, full curve, poor fit] |
| O=C(CCc1c[nH]c2ccccc12)N1CCCCCCC1 |  | inconclusive: 10 µM [inhibitor, single point] |
| Cc1cccc(Cn2c(SCc3ccc(C(=O)NCCc4ccccc4)cc3)nc3ccncc32)c1 |  | inconclusive: 28.2 µM [inhibitor, single point] |
| COc1ccc(-n2c(=O)c3c(c4cc(OC)ccc4n3C)n(Cc3cccc(OC)c3)c2=O)cc1 | inactive: 4.71% |  |
| O=c1c2ccccc2n(Cc2cccc(F)c2)c(=O)n1C1CCCC1 |  | inconclusive: 8.91 µM [inhibitor, partial curve, poor fit] |
| CCCC1=Nc2cc(C(=O)NCc3ccc(OC)cc3)ccc2Sc2ccc(C)cc21 |  | active: 4.47 µM |
| Fc1cccc(-n2ncc3c2ncn2nc(COc4ccc(Cl)cc4)nc32)c1 | inactive: 11.2% |  |
| O=C(Nc1ccccc1C(=O)Nc1ccccc1)c1ccccc1Br |  | inconclusive: 11.2 µM [inhibitor, single point] |
| O=C(CSCc1cccc(F)c1)NCc1ccccc1 |  | inactive |
| Nc1nonc1-n1nnc(C(=O)N/N=C/c2ccccc2Cl)c1CSc1ccccc1 |  | inconclusive: 12.6 µM [inhibitor, single point] |
| Cc1cccc(NC(=S)N(Cc2ccc(Cl)cc2)Cc2ccc(C(=O)O)cc2)c1 | inactive: -6.93% |  |
| Cc1ccc2nc(NC(=O)CSCC(=O)OCC(=O)c3ccc(Br)cc3)sc2c1 |  | inconclusive: 2 µM [inhibitor, partial curve, poor fit] |

| Compound | activity change, negative = inhibition | Potency |
| --- | --- | --- |
| COc1ccccc1CN1C[C@@H]2C[C@@H](C3=Cc4cccc(OC)c4OC3)N3CCC[C@@]23C1=O |  | inconclusive: 12.6 µM [inhibitor, single point] |
| CC1CCN(CCCOc2ccc(Cl)cc2Br)CC1 |  | inconclusive: 12.6 µM [inhibitor, single point] |
| CCOc1[nH]n(-c2ccccc2)c(=O)c1C=Nc1ccc(OC)cc1 |  | inconclusive: 11.2 µM [inhibitor, partial curve, poor fit] |
| COc1ccccc1NC(=S)NC(NC(=O)CC(C)C)C(Cl)(Cl)Cl (stereo not drawn) |  | inconclusive: 28.2 µM [inhibitor, single point] |
| CCN(C(=O)C1CCCN(S(=O)(=O)c2c(C)noc2/C=C/N(C)C)C1)c1cccc(C)c1 (stereo not drawn) |  | inconclusive: 11.2 µM [inhibitor, single point] |
| C=C(C)C(=O)OCC(O)COc1ccc(C(C)(C)c2ccc(OCC(O)COC(=O)C(=C)C)cc2)cc1 (stereo not drawn) |  | inconclusive: 22.4 µM [inhibitor, single point] |
| CC(CC(=O)Nc1ncc([N+](=O)[O-])s1)c1ccccc1 (stereo not drawn) |  | inconclusive: 7.94 µM [inhibitor, partial curve, poor fit] |
| COc1ccc(NC(=S)NNC(=S)Nc2cccc(C(F)(F)F)c2)cc1 |  | inconclusive: 2.51 µM [inhibitor, full curve, poor fit] |
| O=C(CC12CC3CC(CC(C3)C1)C2)NC(=S)NCc1ccco1 |  | inconclusive: 3.55 µM [inhibitor, partial curve, poor fit] |
| CC(C)(C)c1cc(CCC(=O)NCc2cccnc2)cc(C(C)(C)C)c1O |  | inconclusive: 10 µM [inhibitor, partial curve, poor fit] |
| CCS(=O)(=O)N1Cc2ccccc2CC1C(=O)Nc1nc2ccc(F)cc2s1 (stereo not drawn) |  | inconclusive: 8.91 µM [inhibitor, partial curve, poor fit] |
| Cc1ccc(NC(=O)Nc2ccc3snnc3c2)cc1C |  | inconclusive: 12.6 µM [inhibitor, single point] |
| O=C(NCc1ccco1)c1ccc2c(c1)N(Cc1ccc(Cl)cc1)C(=O)c1ccccc1S2=O (stereo not drawn) |  | inconclusive: 10 µM [inhibitor, partial curve, poor fit] |
| COc1ccc(CNc2nc3ccccc3n2C(C)C)c(O)c1 |  | inconclusive: 3.98 µM [inhibitor, single point] |
| COc1ccc(OC)c(S(=O)(=O)n2cnc3cc(C)c(C)cc32)c1 |  | inconclusive: 31.6 µM [inhibitor, partial curve, poor fit] |
| COC(=O)c1scc(-c2ccc(C)cc2)c1S(=O)(=O)N1CCN(c2cccc(OC)c2)CC1 |  | inconclusive: 12.6 µM [inhibitor, single point] |
| COc1cc(OC)cc(C(=O)Nn2cnnc2)c1 | inactive: 9.91% |  |
| Nc1ccc2c(c1)-c1ccccc1S(=O)(=O)N2 | inactive: 0% |  |
| O=C(NCC1CCCN(C2Cc3ccccc3C2)C1)c1cccs1 (stereo not drawn) | inactive: 8.59% |  |
| COc1cc(C)ccc1NC(=O)Cc1csc(NC(=O)Nc2ccccc2OC)n1 |  | active: 10 µM |
| Nc1c(C(=O)Nc2ccc3c(c2)OCCO3)nnn1Cc1cccc(Br)c1 |  | inconclusive: 15.8 µM [inhibitor, partial curve, poor fit] |
